In the supplement of paper PMC6828730:
Counter-ions that a name gives are not always drawn. The list shows a part of the results. Most values come without repeats; read them as rough.

tested on: hiPSC-derived cardiomyocytes; experiment: time to death of most cells in well after compound addition (days); higher = less cardiotoxic; settings: screen: 1; 10 µM

Row | SMILES | time to death of most cells in well
1 | COc1cc2c(c(OC)c1OC)-c1c(cc3c(c1OC)OCO3)CC(C)C(C)C2 (stereo unspecified) [Schisandrin B (Sch B)] | > 7
2 | CC(=O)Nc1nc(C)c(-c2ccc(Cl)c(S(=O)(=O)NCCO)c2)s1 | > 7
3 | CCS(=O)(=O)Nc1ccc2[nH]c(O)c(C(=Nc3ccc(CN4CCCCC4)cc3)c3ccccc3)c2c1 [Hesperadin] | 5
4 | O=C(NOCC1CC1)c1ccc(F)c(F)c1Nc1ccc(I)cc1Cl | > 7
5 | O=C(Nc1ccccc1C(=O)NC1CCCCNC1=O)c1cc2ccccc2s1 (stereo unspecified) | > 7
6 | COc1ccc2c(c1)c(C1=C(c3c[nH]c4ccccc34)C(=O)NC1=O)cn2CCCN(C)C | > 7
7 | COc1ccc(C(=O)Nc2sc3c(c2C(N)=O)CCCC3)cc1OC | > 7
8 | COc1ccc(-c2ccc3c(N4CCOC[C@@H]4C)nc(N4CCOC[C@@H]4C)nc3n2)cc1CO | > 7
9 | CCOc1cc(N2CCC(O)CC2)ccc1Nc1ncc2c(n1)N(C)c1ccccc1C(=O)N2C | 6.5
10 | C=CC(=O)Nc1ccc(CN2C(=O)N(c3cc(OC)cc(OC)c3)Cc3cnc(Nc4ccc(N5CCN(C)CC5)cc4)nc32)cc1 | 1.5
11 | C=CC(=O)N1CCC[C@@H](n2nc(-c3ccc(Oc4ccccc4)cc3)c3c(N)ncnc32)C1 | > 7
12 | N#C/C(=C(/N)Sc1ccc(N)cc1)c1ccccc1C(F)(F)F | > 7
13 | O=C(Nc1cccc(Cl)c1)Nc1ncc(CCNc2ncnc3ccsc23)s1 [SNS-314 Mesylate] | > 7
14 | Nc1nc(NCCNc2ncc(-n3ccnc3)c(-c3ccc(Cl)cc3Cl)n2)ccc1[N+](=O)[O-] | > 7
15 | C=CC(=O)Nc1ccc2ncnc(Nc3cccc(Br)c3)c2c1 | > 7
16 | O=C(Nc1ccc(-c2ccnc(Nc3ccc(N4CCOCC4)cc3)n2)cc1)C1CCCN1 (stereo unspecified) | 2.5
17 | N#Cc1ccc2[nH]c(O)c(-c3ccc(CN4CCOCC4)cn3)c2c1 | > 7
18 | O=C(NOC[C@H](O)CO)c1ccc(F)c(F)c1Nc1ccc(I)cc1F | > 7
19 | CCN(CC)CCNC(=O)c1c(C)[nH]c(/C=C2\C(=O)Nc3ccc(F)cc32)c1C [Sunitinib Malate] | 3

Row | SMILES | time to death of most cells in well
20 | CC(C)(C)c1ccc(S(=O)(=O)/C=C/C#N)cc1 | 0
21 | N#CCNC(=O)c1ccc(-c2ccnc(Nc3ccc(N4CCOCC4)cc3)n2)cc1 [Momelotinib (CYT387)] | 4
22 | C=CC(=O)Nc1cccc(Oc2nc(Nc3ccc(N4CCN(C)CC4)cc3)ncc2Cl)c1 | 4
23 | Cn1cc(/C=C2\C(=O)Nc3cccnc32)c2ccccc21 | > 7
24 | COc1ccc(-c2ccc3ncc4c(c3c2)n(-c2ccc(N3CCNCC3)c(C(F)(F)F)c2)c(=O)n4C)cn1 | 1
25 | C[C@@H]1CN(CC(=O)Nc2ccc3c(c2)Cc2cccc(-c4cc(=O)cc(N5CCOCC5)o4)c2S3)C[C@H](C)O1 | > 7
26 | FC(F)c1nc2ccccc2n1-c1nc(N2CCOCC2)nc(N2CCOCC2)n1 | > 7
27 | CCCCCCCCCCCCCCCCCCOP(=O)([O-])OC1CC[N+](C)(C)CC1 [Perifosine (KRX-0401)] | > 7
28 | COc1cc2nccc(Oc3ccc(NC(=O)C4(C(=O)Nc5ccc(F)cc5)CC4)cc3)c2cc1OC [Cabozantinib malate (XL184)] | > 7
29 | COc1ccc(-c2nc(N3CCOCC3)c3sc(CN(C)c4ncc(C(=O)NO)cn4)cc3n2)cn1 | 4.5
30 | CN1CCC(Nc2nc(Nc3ccc(Oc4ccccc4)cc3)c3c(=O)[nH]cc(Br)c3n2)CC1 | > 7
31 | COc1cc2ncnc(Nc3ccc(Cl)cc3F)c2cc1OC | > 7
32 | Oc1ccc(Nc2nc(-c3ccc(Cl)cc3)cs2)cc1 | 2.5
33 | C[C@H](Nc1ncnc2nc[nH]c12)c1cc2cccc(Cl)c2c(=O)n1-c1ccccc1 [Duvelisib (IPI-145, INK1197)] | 2.5
34 | Cc1ccc(Nc2nccc(N(C)c3ccc4c(C)n(C)nc4c3)n2)cc1S(N)(=O)=O [Pazopanib] | 2.5
35 | COc1cc2ncc(-c3ccccc3)nc2cc1OC [Tyrphostin AG 1296] | > 7
36 | COc1ccc(-c2cc3c(C)nc(N)nc3n([C@H]3CC[C@H](OCCO)CC3)c2=O)cn1 | 1.4
37 | CNC(=O)Nc1ccc(-c2nc(N3CC4CCC(C3)O4)c3cnn(C4CCC5(CC4)OCCO5)c3n2)cc1 | > 7
38 | CO[C@H]1C[C@@H]2CC[C@@H](C)[C@@](O)(O2)C(=O)C(=O)N2CCCC[C@H]2C(=O)O[C@H]([C@H](C)C[C@@H]2CC[C@H](n3cnnn3)[C@H](OC)C2)CC(=O)[C@H](C)/C=C(\C)[C@@H](O)[C@@H](OC)C(=O)[C@H](C)C[C@H](C)/C=C/C=C/C=C/1C [Zotarolimus(ABT-578)] | > 7

tested on: hiPSC-derived cardiomyocytes; experiment: time to death of most cells in well after compound addition (days); higher = less cardiotoxic; extreme values may be limits of the assay; settings: screen: 2; 10 µM

Row | SMILES | time to death of most cells in well
39 | COc1cc2c(c(OC)c1OC)-c1c(cc3c(c1OC)OCO3)CC(C)C(C)C2 (stereo unspecified) [Schisandrin B (Sch B)] | > 7
40 | CC(=O)Nc1nc(C)c(-c2ccc(Cl)c(S(=O)(=O)NCCO)c2)s1 | > 7
41 | CCS(=O)(=O)Nc1ccc2[nH]c(O)c(C(=Nc3ccc(CN4CCCCC4)cc3)c3ccccc3)c2c1 [Hesperadin] | > 7
42 | O=C(NOCC1CC1)c1ccc(F)c(F)c1Nc1ccc(I)cc1Cl | > 7
43 | O=C(Nc1ccccc1C(=O)NC1CCCCNC1=O)c1cc2ccccc2s1 (stereo unspecified) | > 7
44 | COc1ccc2c(c1)c(C1=C(c3c[nH]c4ccccc34)C(=O)NC1=O)cn2CCCN(C)C | 6.5
45 | COc1ccc(C(=O)Nc2sc3c(c2C(N)=O)CCCC3)cc1OC | > 7
46 | COc1ccc(-c2ccc3c(N4CCOC[C@@H]4C)nc(N4CCOC[C@@H]4C)nc3n2)cc1CO | 5.5
47 | CCOc1cc(N2CCC(O)CC2)ccc1Nc1ncc2c(n1)N(C)c1ccccc1C(=O)N2C | 3.5
48 | C=CC(=O)Nc1ccc(CN2C(=O)N(c3cc(OC)cc(OC)c3)Cc3cnc(Nc4ccc(N5CCN(C)CC5)cc4)nc32)cc1 | 3
49 | C=CC(=O)N1CCC[C@@H](n2nc(-c3ccc(Oc4ccccc4)cc3)c3c(N)ncnc32)C1 | 5.5
50 | N#C/C(=C(/N)Sc1ccc(N)cc1)c1ccccc1C(F)(F)F | > 7
51 | O=C(Nc1cccc(Cl)c1)Nc1ncc(CCNc2ncnc3ccsc23)s1 [SNS-314 Mesylate] | > 7
52 | Nc1nc(NCCNc2ncc(-n3ccnc3)c(-c3ccc(Cl)cc3Cl)n2)ccc1[N+](=O)[O-] | 4
53 | C=CC(=O)Nc1ccc2ncnc(Nc3cccc(Br)c3)c2c1 | 3
54 | O=C(Nc1ccc(-c2ccnc(Nc3ccc(N4CCOCC4)cc3)n2)cc1)C1CCCN1 (stereo unspecified) | 1.5
55 | N#Cc1ccc2[nH]c(O)c(-c3ccc(CN4CCOCC4)cn3)c2c1 | > 7
56 | O=C(NOC[C@H](O)CO)c1ccc(F)c(F)c1Nc1ccc(I)cc1F | 3
57 | CCN(CC)CCNC(=O)c1c(C)[nH]c(/C=C2\C(=O)Nc3ccc(F)cc32)c1C [Sunitinib Malate] | 2

Row | SMILES | time to death of most cells in well
58 | CC(C)(C)c1ccc(S(=O)(=O)/C=C/C#N)cc1 | 1
59 | N#CCNC(=O)c1ccc(-c2ccnc(Nc3ccc(N4CCOCC4)cc3)n2)cc1 [Momelotinib (CYT387)] | 2
60 | C=CC(=O)Nc1cccc(Oc2nc(Nc3ccc(N4CCN(C)CC4)cc3)ncc2Cl)c1 | 2
61 | Cn1cc(/C=C2\C(=O)Nc3cccnc32)c2ccccc21 | > 7
62 | COc1ccc(-c2ccc3ncc4c(c3c2)n(-c2ccc(N3CCNCC3)c(C(F)(F)F)c2)c(=O)n4C)cn1 | 0
63 | C[C@@H]1CN(CC(=O)Nc2ccc3c(c2)Cc2cccc(-c4cc(=O)cc(N5CCOCC5)o4)c2S3)C[C@H](C)O1 | > 7
64 | FC(F)c1nc2ccccc2n1-c1nc(N2CCOCC2)nc(N2CCOCC2)n1 | 3
65 | CCCCCCCCCCCCCCCCCCOP(=O)([O-])OC1CC[N+](C)(C)CC1 [Perifosine (KRX-0401)] | > 7
66 | COc1cc2nccc(Oc3ccc(NC(=O)C4(C(=O)Nc5ccc(F)cc5)CC4)cc3)c2cc1OC [Cabozantinib malate (XL184)] | > 7
67 | COc1ccc(-c2nc(N3CCOCC3)c3sc(CN(C)c4ncc(C(=O)NO)cn4)cc3n2)cn1 | 3.5
68 | CN1CCC(Nc2nc(Nc3ccc(Oc4ccccc4)cc3)c3c(=O)[nH]cc(Br)c3n2)CC1 | 0.5
69 | COc1cc2ncnc(Nc3ccc(Cl)cc3F)c2cc1OC | > 7
70 | Oc1ccc(Nc2nc(-c3ccc(Cl)cc3)cs2)cc1 | > 7
71 | C[C@H](Nc1ncnc2nc[nH]c12)c1cc2cccc(Cl)c2c(=O)n1-c1ccccc1 [Duvelisib (IPI-145, INK1197)] | 2
72 | Cc1ccc(Nc2nccc(N(C)c3ccc4c(C)n(C)nc4c3)n2)cc1S(N)(=O)=O [Pazopanib] | 2
73 | COc1cc2ncc(-c3ccccc3)nc2cc1OC [Tyrphostin AG 1296] | > 7
74 | COc1ccc(-c2cc3c(C)nc(N)nc3n([C@H]3CC[C@H](OCCO)CC3)c2=O)cn1 | 2.5
75 | CNC(=O)Nc1ccc(-c2nc(N3CC4CCC(C3)O4)c3cnn(C4CCC5(CC4)OCCO5)c3n2)cc1 | > 7
76 | CO[C@H]1C[C@@H]2CC[C@@H](C)[C@@](O)(O2)C(=O)C(=O)N2CCCC[C@H]2C(=O)O[C@H]([C@H](C)C[C@@H]2CC[C@H](n3cnnn3)[C@H](OC)C2)CC(=O)[C@H](C)/C=C(\C)[C@@H](O)[C@@H](OC)C(=O)[C@H](C)C[C@H](C)/C=C/C=C/C=C/1C [Zotarolimus(ABT-578)] | > 7
